The values below are quoted from earlier work in patent US20030125337A1, “Inhibitors of multidrug transporters” (priority 1998, published 2003).

A number of entries come with more than one value. They are shown here; other results are not. An entry can have further records. Values that stand side by side read as repeated measurements (runs, samples, wells or individuals). Brackets tell where a record comes from. A, B and so on number the origins entry by entry.

In the series the test system is S. aureus, E. faecalis and S. pneumoniae. The conditions noted are these: cited from earlier work.

For the compound `O=C(O)c1cn(C2CC2)c2cc(N3CCNCC3)c(F)cc2c1=O` [ciprofloxacin], the MIC90 was 1-5 μg/ml [passage A] and 1-5 μ/ml [passage B].
